# Results: the supplement of paper PMC3334620
# Whole data set: some 33,000 sequences, median “E-score (-0.5 to 0.5)” near -0.054, cut for the highest 2% near 0.35. Some of the results follow.
# Target: T1, Stb5 (UniProt P38699)
# T1 sequence: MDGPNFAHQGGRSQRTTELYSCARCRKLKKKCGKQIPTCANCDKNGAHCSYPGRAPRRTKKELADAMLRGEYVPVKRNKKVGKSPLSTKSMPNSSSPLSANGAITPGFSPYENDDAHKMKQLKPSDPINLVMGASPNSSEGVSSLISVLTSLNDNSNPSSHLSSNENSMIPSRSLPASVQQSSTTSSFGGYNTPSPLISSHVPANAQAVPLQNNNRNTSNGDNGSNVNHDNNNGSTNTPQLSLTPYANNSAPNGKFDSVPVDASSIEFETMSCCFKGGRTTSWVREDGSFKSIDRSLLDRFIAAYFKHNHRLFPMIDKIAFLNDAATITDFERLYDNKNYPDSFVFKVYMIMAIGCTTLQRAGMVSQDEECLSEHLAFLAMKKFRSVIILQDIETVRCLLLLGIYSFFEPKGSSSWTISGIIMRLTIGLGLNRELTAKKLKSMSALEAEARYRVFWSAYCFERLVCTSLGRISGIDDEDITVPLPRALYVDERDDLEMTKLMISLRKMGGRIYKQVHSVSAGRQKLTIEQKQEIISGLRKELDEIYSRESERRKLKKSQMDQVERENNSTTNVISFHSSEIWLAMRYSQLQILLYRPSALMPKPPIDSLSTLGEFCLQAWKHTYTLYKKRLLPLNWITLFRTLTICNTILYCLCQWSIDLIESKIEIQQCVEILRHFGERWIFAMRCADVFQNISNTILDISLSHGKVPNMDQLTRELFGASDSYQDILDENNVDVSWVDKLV
# Test: PBM E-score (8-mer binding enrichment) (E-score (-0.5 to 0.5)); higher = stronger / more preferred TF binding; most listed sequences are background and not binding sites
# Conditions: protein concentration: 200 nM; construct: GST-full length
# Outline: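 Yeast transcription factors, full-length or as DNA-binding domains, were expressed with a GST tag using PURExpress in vitro transcription/translation. At about 100-200 nM they were applied to universal all-10-mer Agilent arrays, double-stranded by primer extension on fresh or once-stripped slides. Fluorescent anti-GST detected bound protein, and masliner normalised the scans. E-scores for ungapped eight-base words, pooled with reverse complements, came from the Universal PBM Analysis Suite.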
row,Sequence,PBM E-score
1,AATGTTCT,-0.238
2,CTACTAAG,0.105
3,GTAGTCTA,-0.218
4,CGGTACTA,0.474
5,TGCATACA,-0.201
6,AGAGGGAA,-0.199
7,CCGCAACC,0.157
8,AATCGTTG,-0.104
9,CGGCAGAG,-0.0686
10,AAGTCATG,-0.0217
11,ACACATTC,-0.0785
12,CACTGAGA,-0.182
13,AAATGAGA,-0.261
14,GCGAGCAA,-0.102
15,CTCTAAAC,-0.0115
16,AACTCTAA,0.0552
17,GGATGATA,0.0598
18,CTGGCCAG,-0.418
19,ACGAGATG,-0.119
20,GCTCTCTA,-0.164
21,GCGTAAAA,0.131
22,ATGCGATG,-0.0566
23,CGTTGAAA,0.0722
24,CTTTTAGC,-0.118
25,TCACCAAA,-0.103

row,Sequence,PBM E-score
1,CCACTGAA,-0.0427
2,CATTAGCC,-0.018
3,AGCCGACC,0.167
4,GTTACCTA,-0.244
5,CGAAAACA,-0.0503
6,CAGGCTAA,-0.13
7,ATTTCCGC,0.27
8,CGAGAGCA,-0.0348
9,AGATCCGA,0.304
10,AACCGGTC,0.272
11,CTTGAAAA,-0.216
12,AATTTCCC,0.0307
13,ATCCCCTA,-0.101
14,AGACCGGA,0.222
15,AGCACAAG,-0.165
16,ACGCTCAA,-0.0749
17,CGCGCCCG,0.11
18,AAGCCTGT,-0.204
19,CGCCGCAC,0.216
20,CGACTGTC,-0.0325
21,CGCAAATC,0.0539
22,CTGCCACA,-0.133
23,TCGTAGAA,-0.206
24,ATAGGTGC,-0.0237
25,CCCCGGCA,0.313

row,Sequence,PBM E-score
1,CATTACAG,-0.0483
2,AGGCATAG,-0.133
3,CGAGATAA,0.029
4,CGGGTTAA,0.221
5,GGGGTGTA,0.178
6,CGCCATCA,0.0442
7,AGCACCTA,-0.104
8,CATGACGG,0.149
9,ACTGTATC,-0.0524
10,AACGCACC,0.153
11,ATACAGTC,0.0184
12,GGAAATAA,0.274
13,AAAAGGGG,-0.0511
14,ATCTTCGC,0.0285
15,ATGGAATG,-0.0749
16,TATCCAGA,-0.0392
17,CCGGGCCG,0.31
18,AACAGAAC,-0.101
19,CACCTTAC,-0.0754
20,TAGAAGGA,0.0207
21,AGGCTCTG,-0.403
22,ACACATGA,-0.254
23,ATTGATTC,-0.0553
24,ATAGCGTG,-0.0578
25,AGGATAGC,-0.116

row,Sequence,PBM E-score
1,TCAACTGA,-0.194
2,AAATGGTG,0.0218
3,ACCGTCTG,0.238
4,GGAAACGA,-0.208
5,AAGCAGCC,-0.289
6,AGAATTAA,-0.166
7,TCCGCCGA,0.346
8,AACCGGTT,0.166
9,AATGCCAT,-0.0216
10,CAGGTCAG,-0.188
11,GCAGGTCA,-0.17
12,AACCGGGT,0.205
13,ACACAGAA,-0.184
14,GATATAAA,0.146
15,GATTATGC,0.0744
16,ACGGCAAC,0.105
17,AAGAACCT,-0.256
18,CCCGAGCG,0.175
19,CCTAATGA,-0.235
20,CTATGTCA,-0.221
21,ACTATTGG,-0.114
22,AGGCTTTC,-0.158
23,ACAACTTG,-0.219
24,CGTTGAGA,0.0833
25,ACCCTTGC,-0.0893

row,Sequence,PBM E-score
1,ACACCACA,-0.00034
2,GTAATTAA,0.0741
3,CTAACGTA,-0.0684
4,GGTATCTA,0.151
5,AGAGTGAC,-0.255
6,TCATATGA,0.201
7,ACGCTCTC,0.0416
8,GGCATCTA,0.0687
9,GGACGTCA,-0.046
10,ACAAACTA,-0.19
11,ATTCTTAG,-0.0603
12,ACACCCTG,-0.329
13,CCCCCGTC,0.233
14,AATTCTCG,-0.186
15,GGCATGAA,0.0813
16,CCGCGTCC,0.106
17,AATGTAAT,0.0627
18,AGAACGCC,-0.0964
19,AATGCAAA,-0.0786
20,GATTAACC,-0.0011
21,AAAAAATA,-0.0888
22,TATACCAA,-0.106
23,AGTTCTCA,-0.0835
24,GTATTGAA,-0.0683
25,CGGCGAAG,0.116

row,Sequence,PBM E-score
1,TCTGGCAA,-0.27
2,GCTATCAA,0.0386
3,CGCGCGTA,0.123
4,TGTCTCAA,-0.145
5,GTCTACCA,-0.222
6,AACAAATC,0.0491
7,AGGTTATG,-0.0259
8,AGCTCGAT,-0.253
9,GATCTGGA,-0.087
10,GAAGCTAA,-0.0899
11,CTGTAAAA,-0.0191
12,GCTACTCC,0.00567
13,ACAGTATA,-0.0674
14,ACTGGTTC,-0.0622
15,CCGCTGCG,0.33
16,ACTATTAT,0.0237
17,GGAGCCAC,-0.0783
18,ATGGTCTC,-0.248
19,ATCGAGCA,-0.147
20,CAAATGGG,-0.245
21,CGCAGGCA,0.103
22,CCAACCAG,-0.144
23,ATACGTAA,0.0168
24,CACGCCGA,0.133
25,CTCTCTAC,-0.0828

row,Sequence,PBM E-score
1,CCGACACG,0.285
2,ATGGGTGA,-0.12
3,GTTCCACA,-0.0543
4,CGGTCGCA,0.265
5,GGGCACCA,-0.0676
6,CGGTCCCA,0.358
7,CCGGCGAA,0.262
8,AGTAAGTA,-0.0996
9,ACCCTGTC,-0.137
10,AATCCGGG,0.233
11,CTCTCCCC,-0.1
12,CGTCACGA,-0.0659
13,AGGCACTC,-0.258
14,GCTTTTCA,-0.0542
15,CGGCTACA,0.0788
16,AATAGATA,-0.119
17,AATGTTGT,-0.19
18,CTCGCGAG,-0.148
19,GTCACGTA,-0.171
20,ATGGTACA,-0.156
21,AGGGGTTG,-0.243
22,GAAGAAGC,-0.127
